# Measured values taken from the supplement of paper PMC8728848.
# The list shows a part of the results.
# Experiments:
# Assay in all cases: glycan array binding signal (z-score within array); higher = stronger binding
# Details in all cases: glycan notation: IUPAC condensed, linker removed
# [1] = target: Gal(b1-4)GlcNAc(b1-3)Gal(b1-4)GlcNAc(b1-3)Gal(b1-4)GlcNAc
# How it was run: (§1)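 Glycan array data came from 3228 arrays in the Consortium for Functional Glycomics database, and only arrays with an available protein sequence were kept. Glycan names were put into IUPAC-condensed notation, and columns mapping to the same glycan were averaged. The binding signal is a within-array Z-score, averaged across arrays of one protein sequence run at different concentrations or buffers and across linkers. A negative Z-score can be read as non-binding.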
# [2] = target: Gal(b1-4)GlcNAc(b1-3)Gal(b1-4)GlcNAc(b1-3)Gal(b1-4)GlcNAc(b1-2)Man(a1-3)[Gal(b1-4)GlcNAc(b1-3)Gal(b1-4)GlcNAc(b1-3)Gal(b1-4)GlcNAc(b1-2)Man(a1-6)]Man(b1-4)GlcNAc(b1-4)GlcNAc
# How it was run: as §1
# [3] = target: Gal(b1-4)GlcNAc(b1-3)Gal(b1-4)GlcNAc(b1-3)Gal(b1-4)GlcNAc(b1-2)Man(a1-3)[Gal(b1-4)GlcNAc(b1-3)Gal(b1-4)GlcNAc(b1-3)Gal(b1-4)GlcNAc(b1-2)Man(a1-6)]Man(b1-4)GlcNAc(b1-4)[Fuc(a1-6)]GlcNAc
# How it was run: as §1
# [4] = target: Gal(b1-4)GlcNAc(b1-3)Gal(b1-4)GlcNAc(b1-3)Gal(b1-4)GlcNAc(b1-2)[Gal(b1-4)GlcNAc(b1-3)Gal(b1-4)GlcNAc(b1-3)Gal(b1-4)GlcNAc(b1-6)]Man(a1-6)[Gal(b1-4)GlcNAc(b1-3)Gal(b1-4)GlcNAc(b1-3)Gal(b1-4)GlcNAc(b1-2)Man(a1-3)]Man(b1-4)GlcNAc(b1-4)[Fuc(a1-6)]GlcNAc
# How it was run: as §1
# [5] = target: Gal(b1-4)GlcNAc(b1-3)Gal(b1-4)GlcNAc(b1-3)Gal(b1-4)GlcNAc(b1-3)Gal(b1-4)GlcNAc(b1-2)Man(a1-3)[Gal(b1-4)GlcNAc(b1-3)Gal(b1-4)GlcNAc(b1-3)Gal(b1-4)GlcNAc(b1-3)Gal(b1-4)GlcNAc(b1-2)Man(a1-6)]Man(b1-4)GlcNAc(b1-4)GlcNAc
# How it was run: as §1
# [6] = target: Gal(b1-4)GlcNAc(b1-3)Gal(b1-4)GlcNAc(b1-3)Gal(b1-4)GlcNAc(b1-3)Gal(b1-4)GlcNAc(b1-2)Man(a1-3)[Gal(b1-4)GlcNAc(b1-3)Gal(b1-4)GlcNAc(b1-3)Gal(b1-4)GlcNAc(b1-3)Gal(b1-4)GlcNAc(b1-2)Man(a1-6)]Man(b1-4)GlcNAc(b1-4)[Fuc(a1-6)]GlcNAc
# How it was run: as §1
# [7] = target: Gal(b1-4)GlcNAc(b1-3)Gal(b1-4)GlcNAc(b1-3)Gal(b1-4)GlcNAc(b1-3)Gal(b1-4)GlcNAc(b1-2)[Gal(b1-4)GlcNAc(b1-3)Gal(b1-4)GlcNAc(b1-3)Gal(b1-4)GlcNAc(b1-3)Gal(b1-4)GlcNAc(b1-6)]Man(a1-6)[Gal(b1-4)GlcNAc(b1-3)Gal(b1-4)GlcNAc(b1-3)Gal(b1-4)GlcNAc(b1-3)Gal(b1-4)GlcNAc(b1-2)Man(a1-3)]Man(b1-4)GlcNAc(b1-4)[Fuc(a1-6)]GlcNAc
# How it was run: as §1
# [8] = target: Gal(b1-4)GlcNAc(b1-3)Gal(b1-4)GlcNAc(b1-3)Gal(b1-4)GlcNAc(b1-3)Gal(b1-4)GlcNAc(b1-3)Gal(b1-4)GlcNAc(b1-2)Man(a1-3)[Gal(b1-4)GlcNAc(b1-3)Gal(b1-4)GlcNAc(b1-3)Gal(b1-4)GlcNAc(b1-3)Gal(b1-4)GlcNAc(b1-3)Gal(b1-4)GlcNAc(b1-2)Man(a1-6)]Man(b1-4)GlcNAc(b1-4)GlcNAc
# How it was run: as §1
# [9] = target: Gal(b1-4)GlcNAc(b1-3)Gal(b1-4)GlcNAc(b1-3)Gal(b1-4)GlcNAc(b1-3)Gal(b1-4)GlcNAc(b1-3)Gal(b1-4)GlcNAc(b1-2)Man(a1-3)[Gal(b1-4)GlcNAc(b1-3)Gal(b1-4)GlcNAc(b1-3)Gal(b1-4)GlcNAc(b1-3)Gal(b1-4)GlcNAc(b1-3)Gal(b1-4)GlcNAc(b1-2)Man(a1-6)]Man(b1-4)GlcNAc(b1-4)[Fuc(a1-6)]GlcNAc
# How it was run: as §1
# [10] = target: Gal(b1-4)GlcNAc(b1-3)Gal(b1-4)GlcNAc(b1-3)Gal(b1-4)GlcNAc(b1-3)Gal(b1-4)GlcNAc(b1-3)Gal(b1-4)GlcNAc(b1-2)[Gal(b1-4)GlcNAc(b1-3)Gal(b1-4)GlcNAc(b1-3)Gal(b1-4)GlcNAc(b1-3)Gal(b1-4)GlcNAc(b1-3)Gal(b1-4)GlcNAc(b1-6)]Man(a1-6)[Gal(b1-4)GlcNAc(b1-3)Gal(b1-4)GlcNAc(b1-3)Gal(b1-4)GlcNAc(b1-3)Gal(b1-4)GlcNAc(b1-3)Gal(b1-4)GlcNAc(b1-2)Man(a1-3)]Man(b1-4)GlcNAc(b1-4)[Fuc(a1-6)]GlcNAc
# How it was run: as §1
# [11] = target: Gal(b1-4)GlcNAc(b1-3)Gal(b1-4)GlcNAc(b1-3)Gal(b1-4)GlcNAc(b1-3)Gal(b1-4)GlcNAc(b1-3)Gal(b1-4)GlcNAc(b1-3)Gal(b1-4)GlcNAc(b1-2)Man(a1-3)[Gal(b1-4)GlcNAc(b1-3)Gal(b1-4)GlcNAc(b1-3)Gal(b1-4)GlcNAc(b1-3)Gal(b1-4)GlcNAc(b1-3)Gal(b1-4)GlcNAc(b1-3)Gal(b1-4)GlcNAc(b1-2)Man(a1-6)]Man(b1-4)GlcNAc(b1-4)GlcNAc
# How it was run: as §1
# [12] = target: Gal(b1-4)GlcNAc(b1-3)Gal(b1-4)GlcNAc(b1-3)GalNAc
# How it was run: as §1
# [13] = target: Gal(b1-4)GlcNAc(b1-3)Gal(b1-4)GlcNAc(b1-3)[Gal(b1-4)GlcNAc(b1-3)Gal(b1-4)GlcNAc(b1-6)]GalNAc
# How it was run: as §1
# [14] = target: Gal(b1-4)GlcNAc(b1-3)Gal(b1-4)GlcNAc(b1-6)[Gal(b1-3)]GalNAc
# How it was run: as §1
# [15] = target: Gal(b1-4)GlcNAc(b1-3)Gal(b1-4)[Fuc(a1-3)GlcNAc(b1-6)]Gal(b1-4)Glc
# How it was run: as §1
# [16] = target: Gal(b1-4)GlcNAc(b1-3)Gal(b1-4)[Fuc(a1-3)]GlcNAc(b1-3)Gal(b1-4)[Fuc(a1-3)]GlcNAc
# How it was run: as §1
# [17] = target: Gal(b1-4)GlcNAc(b1-3)GalNAc
# How it was run: as §1
# [18] = target: Gal(b1-4)GlcNAc(b1-3)[Fuc(a1-3)GlcNAc(b1-6)]Gal(b1-4)Glc
# How it was run: as §1
# [19] = target: Gal(b1-4)GlcNAc(b1-3)[Gal(b1-4)GlcNAc(b1-6)]Gal(b1-4)GlcNAc
# How it was run: as §1
# [20] = target: Gal(b1-4)GlcNAc(b1-3)[Gal(b1-4)GlcNAc(b1-6)]GalNAc
# How it was run: as §1
# [21] = target: Gal(b1-4)GlcNAc(b1-3)[GlcNAc(b1-6)]Gal(b1-4)GlcNAc
# How it was run: as §1
# [22] = target: Gal(b1-4)GlcNAc(b1-6)Gal(b1-4)GlcNAc
# How it was run: as §1
# [23] = target: Gal(b1-4)GlcNAc(b1-6)GalNAc
# How it was run: as §1
# [24] = target: Gal(b1-4)GlcNAc(b1-6)[Gal(b1-3)]GalNAc
# How it was run: as §1
# [25] = target: Gal(b1-4)GlcNAc(b1-6)[Gal(b1-4)GlcNAc(b1-3)]GalNAc
# How it was run: as §1
# [26] = target: Gal(b1-4)GlcNAc6P
# How it was run: as §1
# [27] = target: Gal(b1-6)Gal
# How it was run: as §1
# [28] = target: Gal3S(b1-3)GalNAc
# How it was run: as §1
# [29] = target: Gal3S(b1-3)GlcNAc
# How it was run: as §1
# [30] = target: Gal3S(b1-3)[Fuc(a1-4)]GlcNAc
# How it was run: as §1
# [31] = target: Gal3S(b1-4)Glc
# How it was run: as §1
# [32] = target: Gal3S(b1-4)Glc6S
# How it was run: as §1
# [33] = target: Gal3S(b1-4)GlcNAc
# How it was run: as §1
# [34] = target: Gal3S(b1-4)GlcNAc6S
# How it was run: as §1
# [35] = target: Gal3S(b1-4)[Fuc(a1-3)]Glc
# How it was run: as §1
# [36] = target: Gal3S(b1-4)[Fuc(a1-3)]Glc6S
# How it was run: as §1
# [37] = target: Gal3S(b1-4)[Fuc(a1-3)]GlcNAc
# How it was run: as §1
binder,measurement,setting,value
PpFlo2 (Pichia pastoris) (protein) MGSSHHHHHHSSGLVPRGSHMDDSGNGDNSDTAYGCDITTNAVDGFDATIYQYNANDLRLIRDPTFMSTGYLGRNVLNKISGVTVPGFNIWNPSSRTATVYGVKNVNYYNMVLELKGYFKADVSGDYKLTLSHIDDSSMLFFGKETAFKCCDAGSIPLNEAPTDYSLFTIKPSNQVNSEVISATQYLEAGKYYPVRIVFVNALERARFDFKLTIPSGAVLDDFQNYIYQFGDLDENSCHE,glycan array binding signal (z-score),[1],-0.25
same,glycan array binding signal (z-score),[2],-0.157
same,glycan array binding signal (z-score),[3],-0.237
same,glycan array binding signal (z-score),[4],-0.261
same,glycan array binding signal (z-score),[5],-0.228
same,glycan array binding signal (z-score),[6],-0.243
same,glycan array binding signal (z-score),[7],-0.253
same,glycan array binding signal (z-score),[8],-0.112
same,glycan array binding signal (z-score),[9],-0.24
same,glycan array binding signal (z-score),[10],-0.202
same,glycan array binding signal (z-score),[11],-0.187
same,glycan array binding signal (z-score),[12],0.339
same,glycan array binding signal (z-score),[13],-0.096
same,glycan array binding signal (z-score),[14],-0.267
same,glycan array binding signal (z-score),[15],-0.148
same,glycan array binding signal (z-score),[16],0.409
same,glycan array binding signal (z-score),[17],-0.28
same,glycan array binding signal (z-score),[18],-0.175
same,glycan array binding signal (z-score),[19],-0.271
same,glycan array binding signal (z-score),[20],0.061
same,glycan array binding signal (z-score),[21],0.396
same,glycan array binding signal (z-score),[22],-0.297
same,glycan array binding signal (z-score),[23],-0.175
same,glycan array binding signal (z-score),[24],0.004
same,glycan array binding signal (z-score),[25],-0.188
same,glycan array binding signal (z-score),[26],-0.272
same,glycan array binding signal (z-score),[27],-0.299
same,glycan array binding signal (z-score),[28],-0.298
same,glycan array binding signal (z-score),[29],-0.289
same,glycan array binding signal (z-score),[30],-0.286
same,glycan array binding signal (z-score),[31],-0.303
same,glycan array binding signal (z-score),[32],-0.25
same,glycan array binding signal (z-score),[33],-0.295
same,glycan array binding signal (z-score),[34],-0.354
same,glycan array binding signal (z-score),[35],-0.35
same,glycan array binding signal (z-score),[36],-0.288
same,glycan array binding signal (z-score),[37],-0.274
